Results as given in the supplement of paper PMC7826260.
The list shows a part of the results. The data describe in vitro nicking of single-stranded DNA by Rep domains at 3 µM enzyme and 37 °C for 1 h; the strands have 90 letters, of which the middle is given. A value is the log2 ratio of uncut reads to the pool without enzyme; more negative means more cut, near 0 not cut, and no call is made. Shares of all reads are compared; where an enzyme cuts many sequences, the uncut ones exceed 0.

Test system: T1, Rep nickase domain of tomato golden mosaic virus
T1 sequence (Rep 1-124, printed without the tag): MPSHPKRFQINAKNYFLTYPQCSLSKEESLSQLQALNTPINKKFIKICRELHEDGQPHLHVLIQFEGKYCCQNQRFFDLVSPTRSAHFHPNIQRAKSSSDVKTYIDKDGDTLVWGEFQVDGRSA
Experiment: uncleaved DNA left, log2 of reads against the no-enzyme library (log2 ratio); higher = less cleavage (more negative = more Rep cleavage of the k-mer); sequences stand for … in CTCGTCCG…ACCGGAGA
Description: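 A pool of 90-nt single-stranded DNAs with seven random bases just before the constant AC of the nick site (name = the seven bases) was cut by 3 µM recombinant His6-SUMO-tagged Rep nickase domain (300 nM DNA, 50 mM HEPES pH 8.0, 50 mM NaCl, 1 mM MnCl2, 1 h, 37 °C, three replicates). Uncut DNA was amplified and sequenced.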

Sequence	uncleaved DNA left (log2)
ATAAACC	0.029
TAGAGCC	-0.141
AAGAATC	0.145
TCGCCGC	-0.147
GCCATTT	-0.0248
ACTCACC	0.0889
GAAACCG	0.0513
GCGCTGT	-0.0855
ACTACAA	-0.101
ACTGGAA	0.00474
CACATTA	-0.0799
TTAAACG	-0.03
GAATGGG	0.065
AAATGCC	-0.119
TTGCTCG	-0.161
CAATGTG	0.185
TGGGAGC	0.0918
AGCCAAG	0.111
TTTCGGT	-0.0495
TGGGCAC	-0.0501

Sequence	uncleaved DNA left (log2)
CAAACTG	0.0734
GCACGCT	-0.0806
CTAGTGG	0.143
ACCAGAC	0.0889
TACACAG	-0.121
CTAACGT	0.0879
CATAATG	-0.142
CGTGGTC	-0.0306
GTTGTAA	0.214
GTAGGTG	-0.00836
ACTTATC	-0.13
GCAAGGG	0.0987
TAGGAGG	0.131
CGGATGA	0.0215
AAGGGAC	0.0672
AGGTCCA	-0.0573
TCACGGG	0.0256
GGCTTCG	0.052
ATTTATG	0.0324
CTGATTT	-0.18
